In the antibiotic and cytotoxicity screens of Wong et al. (2023) one finds cytotoxicity call and growth inhibition call data, which are given here for 27 compounds.

This is one part of the list.

One experiment relates to HSkMC. The experiment in a line: cytotoxicity call (relative viability < 0.9). The following applies: 10 µM.
A further experiment relates to HepG2. The experiment in a line: cytotoxicity call (relative viability < 0.9). The conditions noted are these: 10 µM.
Another experiment relates to S. aureus RN4220. Put plainly: growth inhibition call (relative growth <= 0.2). The conditions noted are these: 50 µM.

For `COc1ccc(S(=O)(=O)Nc2ccc3c(c2)CC(=O)N([C@@H](C)CO)C[C@H](C)[C@H](CN(C)S(=O)(=O)c2cn(C)cn2)O3)cc1`, the cytotoxicity call with HSkMC and with HepG2 was “inactive” throughout. Moreover, the growth inhibition call with S. aureus RN4220 was “inactive”.
As to `COc1ccc([C@@H]([C@H](Cc2ccccc2)OC(C)=O)N2C[C@H]3[C@@H]([C@@H](O)c4ccccc4)ON(C)[C@H]3[C@@H]2Cc2ccccc2)cc1`, in the experiment on HSkMC, the cytotoxicity call was “inactive”. For the same compound, the cytotoxicity call with HepG2 was “active”. In addition, the growth inhibition call in the experiment with S. aureus RN4220 was “inactive”.
For the compound `C[C@H](CO)N1C[C@H](C)[C@@H](CN(C)CC2CCOCC2)Oc2cc(C#Cc3ccccc3F)ccc2S1(=O)=O`, the cytotoxicity call in the experiment on HSkMC and with HepG2 was “inactive” each time. For the same compound, the growth inhibition call in the experiment on S. aureus RN4220 was “inactive”.
As for `COc1ccc([C@H]2CC([C@@H]3C(=O)N[C@H]4CC[C@H](Br)C[C@@H]4[C@H]3c3ccccc3)=NN2C(=O)c2ccccc2)cc1`, the cytotoxicity call in the experiment on HSkMC and in the experiment with HepG2 was “inactive” throughout. Moreover, the growth inhibition call in the experiment with S. aureus RN4220 is “inactive”.
Regarding `CCCC1CCC(c2ccc(OC(=O)c3cccnc3)cc2)CC1` (stereo unspecified), the cytotoxicity call in the experiment with HSkMC and with HepG2 was “inactive” throughout. Further, in the experiment with S. aureus RN4220, the growth inhibition call is “inactive”.
Consider `C[C@@H]1CN([C@@H](C)CO)C(=O)c2c(c3ccccc3n2C)-c2ccccc2CO[C@@H]1CN(C)C(=O)Nc1ccccc1C(F)(F)F`, for which the cytotoxicity call in the experiment with HSkMC and in the experiment with HepG2 was “inactive” each time. Besides, the growth inhibition call in the experiment on S. aureus RN4220 was “inactive”.
Consider `COc1ccccc1S(=O)(=O)N[C@H]1C=C[C@@H](CC(=O)N2CCOCC2)O[C@@H]1CO`, for which the cytotoxicity call in the experiment with HSkMC and in the experiment on HepG2 was “inactive” in each case. Besides, the growth inhibition call in the experiment with S. aureus RN4220 is “inactive”.
Consider `C=CCn1c(=O)c2cnc(Nc3ccc(N4CCN(C)CC4)cc3)nc2n1-c1cccc(C(C)(C)O)n1`, for which the cytotoxicity call in the experiment with HSkMC was “inactive”. Besides, in the experiment on HepG2, the cytotoxicity call is “active”. For the same compound, in the experiment on S. aureus RN4220, the growth inhibition call was “inactive”.
On to `CN1C(=O)c2cc(NC(=O)C3CCOCC3)ccc2OC[C@@H]2O[C@H](CC(=O)NCCc3ccncc3)CC[C@H]21`, for which the cytotoxicity call in the experiment on HSkMC and in the experiment on HepG2 was “inactive” throughout. The growth inhibition call with S. aureus RN4220 was “inactive”.
As for `C[C@@H]1CCCCO[C@H](CN(C)C(=O)Nc2ccc(C(F)(F)F)cc2)[C@H](C)CN([C@H](C)CO)C(=O)c2cc(NC(=O)c3ccncc3)ccc2O1`, the cytotoxicity call in the experiment on HSkMC and with HepG2 was “inactive” each time. For the same compound, the growth inhibition call in the experiment on S. aureus RN4220 is “inactive”.
Take `COc1ccc(S(=O)(=O)N(C)C[C@H]2Oc3cc(C#CC4CC4)ccc3S(=O)(=O)N([C@@H](C)CO)C[C@H]2C)cc1`: the cytotoxicity call with HSkMC and in the experiment with HepG2 was “inactive” each time. Further, the growth inhibition call in the experiment on S. aureus RN4220 was “inactive”.
For `COc1cc2c(cc1O)[C@H](c1ccc(CN3CCCC3)cc1)N(Cc1sc3ccccc3c1Cl)CC2`, the cytotoxicity call in the experiment on HSkMC and in the experiment with HepG2 was “inactive” throughout. Further, the growth inhibition call in the experiment on S. aureus RN4220 is “inactive”.
In the case of `Cc1noc(C)c1S(=O)(=O)Nc1ccc2c(c1)CC(=O)N([C@H](C)CO)C[C@H](C)[C@@H](CN(C)C(=O)NC1CCCCC1)O2`, the cytotoxicity call in the experiment with HSkMC and in the experiment on HepG2 was “inactive” throughout. Further, the growth inhibition call in the experiment on S. aureus RN4220 is “inactive”.
On to `Cc1noc(C)c1NC(=O)Nc1ccc2c(c1)C(=O)N([C@H](C)CO)C[C@H](C)[C@H](CN(C)C(=O)Nc1ccccc1)OCCCC[C@H](C)O2`, for which the cytotoxicity call with HSkMC and in the experiment with HepG2 was “inactive” throughout. Besides, in the experiment on S. aureus RN4220, the growth inhibition call was “inactive”.
Regarding `Cc1noc(C)c1NC(=O)Nc1ccc2c(c1)CC(=O)N([C@H](C)CO)C[C@@H](C)[C@@H](CN(C)C(=O)Nc1cccc3ccccc13)O2`, the cytotoxicity call in the experiment with HSkMC and in the experiment with HepG2 was “inactive” in each case. The growth inhibition call in the experiment with S. aureus RN4220 is “inactive”.
Turning to `CCS(=O)(=O)Nc1ccc2c(c1)C(=O)N(C)[C@H]1CC[C@H](CC(=O)Nc3ccccc3C)O[C@@H]1CO2`, the cytotoxicity call with HSkMC and in the experiment on HepG2 was “inactive” in each case. The growth inhibition call in the experiment on S. aureus RN4220 was “inactive”.
`C[C@@H]1CCCCO[C@@H](CN(C)S(=O)(=O)c2ccc(F)cc2)[C@H](C)CN([C@@H](C)CO)C(=O)c2cc(NC(=O)c3ccccc3)ccc2O1`: the cytotoxicity call in the experiment on HSkMC and with HepG2 was “inactive” each time. In the experiment on S. aureus RN4220, the growth inhibition call was “inactive”.
As for `C[C@H]1CCCCO[C@H](CN(C)C(=O)Nc2ccc3c(c2)OCO3)[C@@H](C)CN([C@@H](C)CO)C(=O)c2cc(NC(=O)Cc3ccccc3)ccc2O1`, the cytotoxicity call in the experiment on HSkMC and in the experiment on HepG2 was “inactive” throughout. Also, the growth inhibition call in the experiment on S. aureus RN4220 is “inactive”.
`C[C@H]1CN([C@@H](C)CO)C(=O)c2cc(NS(=O)(=O)c3cccs3)ccc2O[C@H]1CN(C)Cc1ccncc1`: the cytotoxicity call with HSkMC and with HepG2 was “inactive” throughout. Moreover, the growth inhibition call in the experiment with S. aureus RN4220 is “inactive”.
Take `C[C@@H]1CN([C@H](C)CO)C(=O)Cc2cc(NC(=O)c3ccncc3)ccc2O[C@H]1CN(C)S(C)(=O)=O`: the cytotoxicity call with HSkMC and in the experiment with HepG2 was “inactive” each time. Further, the growth inhibition call in the experiment with S. aureus RN4220 is “inactive”.
As to `C[C@H]1CN([C@@H](C)CO)C(=O)c2cccc(NC(=O)c3cnccn3)c2O[C@H]1CN(C)S(C)(=O)=O`, the cytotoxicity call in the experiment on HSkMC and in the experiment on HepG2 was “inactive” throughout. The growth inhibition call in the experiment on S. aureus RN4220 was “inactive”.
Regarding `C[C@@H]1CN([C@@H](C)CO)C(=O)c2cc(NC(=O)C3CCCCC3)ccc2O[C@@H](C)CCCCO[C@@H]1CN(C)C(=O)Cc1ccccc1`, the cytotoxicity call in the experiment on HSkMC and in the experiment with HepG2 was “inactive” throughout. The growth inhibition call in the experiment with S. aureus RN4220 is “inactive”.
For `O=C(N[C@@H]1CC[C@H](CCn2cc(C3(O)CCCC3)nn2)O[C@@H]1CO)C1CCOCC1`, the cytotoxicity call in the experiment on HSkMC and with HepG2 was “inactive” in each case. In the experiment with S. aureus RN4220, the growth inhibition call was “inactive”.
As for `Cc1noc(C)c1S(=O)(=O)N(C)C[C@H]1Oc2ccc(NC(=O)CCCN(C)C)cc2CC(=O)N([C@H](C)CO)C[C@@H]1C`, the cytotoxicity call in the experiment with HSkMC and in the experiment with HepG2 was “inactive” throughout. Further, in the experiment on S. aureus RN4220, the growth inhibition call is “inactive”.
For `C[C@H]1CN([C@@H](C)CO)C(=O)c2cc(Br)cnc2O[C@@H]1CN(C)Cc1ccc2c(c1)OCO2`, the cytotoxicity call in the experiment on HSkMC and with HepG2 was “inactive” in each case. Moreover, the growth inhibition call with S. aureus RN4220 was “inactive”.
`CO[C@H]1CN(C)C(=O)c2cc(NS(C)(=O)=O)ccc2OC[C@H](C)N(S(C)(=O)=O)C[C@@H]1C`: the cytotoxicity call with HSkMC and in the experiment with HepG2 was “inactive” in each case. The growth inhibition call in the experiment on S. aureus RN4220 was “inactive”.
Regarding `C[C@@H]1CN([C@@H](C)CO)C(=O)c2cc(NS(=O)(=O)c3ccc(F)cc3)ccc2O[C@H]1CN(C)Cc1ccc(Cl)c(Cl)c1`, the cytotoxicity call in the experiment on HSkMC (human skeletal muscle cells) was “active”. The cytotoxicity call in the experiment on HepG2 is “inactive”. In the experiment on S. aureus RN4220, the growth inhibition call was “inactive”.
